Measured values taken from paper PMC4336329 (PLoS ONE, 2015).
In all, about 310,000 compounds went through this assay and about 2,200 (0.71%) showed an effect of 50% or more. Effects have a minus sign here. This is one part of the list.

Target: human ether-à-go-go-related gene (hERG) potassium channel (human, UniProt Q12809)
Test: primary screen, population patch clamp on CHO cells stably expressing hERG

Chain of human ether-à-go-go-related gene (hERG) potassium channel (Q12809 whole entry, looked up): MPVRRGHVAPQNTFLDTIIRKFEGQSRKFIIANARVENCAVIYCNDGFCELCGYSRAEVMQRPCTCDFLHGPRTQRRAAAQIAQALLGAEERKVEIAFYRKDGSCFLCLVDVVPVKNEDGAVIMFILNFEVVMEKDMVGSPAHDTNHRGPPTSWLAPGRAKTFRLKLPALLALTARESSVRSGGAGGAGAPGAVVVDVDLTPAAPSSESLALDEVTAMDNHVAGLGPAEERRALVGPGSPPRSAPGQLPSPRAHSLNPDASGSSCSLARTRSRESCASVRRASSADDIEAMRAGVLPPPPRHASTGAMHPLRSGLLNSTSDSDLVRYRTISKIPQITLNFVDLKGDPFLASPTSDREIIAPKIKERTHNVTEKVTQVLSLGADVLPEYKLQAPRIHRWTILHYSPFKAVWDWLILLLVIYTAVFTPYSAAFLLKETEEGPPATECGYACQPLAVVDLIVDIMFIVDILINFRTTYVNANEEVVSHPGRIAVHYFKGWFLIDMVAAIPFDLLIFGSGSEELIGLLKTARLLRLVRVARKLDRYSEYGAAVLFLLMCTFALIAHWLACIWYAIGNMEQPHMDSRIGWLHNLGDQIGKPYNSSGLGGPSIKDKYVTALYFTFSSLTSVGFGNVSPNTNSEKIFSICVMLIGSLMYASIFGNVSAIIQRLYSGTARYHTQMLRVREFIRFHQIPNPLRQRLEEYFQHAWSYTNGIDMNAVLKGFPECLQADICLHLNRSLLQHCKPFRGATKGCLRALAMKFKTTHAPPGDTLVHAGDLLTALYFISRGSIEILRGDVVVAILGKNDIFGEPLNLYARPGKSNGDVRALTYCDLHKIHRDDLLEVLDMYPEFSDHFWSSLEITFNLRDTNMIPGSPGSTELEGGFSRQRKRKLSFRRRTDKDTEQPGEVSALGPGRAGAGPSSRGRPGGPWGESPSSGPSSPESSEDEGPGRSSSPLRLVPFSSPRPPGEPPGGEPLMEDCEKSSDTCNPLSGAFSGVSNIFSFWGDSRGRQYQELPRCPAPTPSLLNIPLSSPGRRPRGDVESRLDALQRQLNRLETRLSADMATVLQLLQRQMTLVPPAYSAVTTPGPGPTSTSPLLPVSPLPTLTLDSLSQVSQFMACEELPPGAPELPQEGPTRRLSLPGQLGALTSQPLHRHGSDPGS

Row | SMILES | hERG current change (%, negative = inhibition) at 1uM
1 | CN(C(=S)Nc1ccccc1)c1ccccc1 | 4.13%
2 | COc1ccccc1NC(=O)c1cccc(N2C(=O)C3C4C=CC(C4)C3C2=O)c1 (centres unmarked) | 7.13%
3 | CCN1CCc2c(sc(NC(=O)c3ccc(S(=O)(=O)N4CCOCC4)cc3)c2C(=O)OC)C1.Cl | -4.77%
4 | O=C(c1ccccc1[N+](=O)[O-])N1CCCN(C(=O)c2ccccc2[N+](=O)[O-])CC1 | -6.88%
5 | O=C(Nc1ccnn1C1CCN(C2CCC2)CC1)c1ccccc1Cl | -28.4%
6 | COC(=O)c1ccc(C(=O)OC)c(NC(=O)COC(=O)C2CC2C)c1 (centres unmarked) | 8.92%
7 | COc1cccc(-n2nnnc2SCC(=O)Nc2cccc(C)n2)c1 | 9.94%
8 | O=C(N/N=C/c1cccc(O)c1)c1cc(-c2ccc3c(c2)OCO3)n[nH]1 | 13.8%
9 | COc1ccc(-n2nnnc2-c2nc3ccccc3s2)cc1 | -12.8%
10 | O=C(Nc1ccc(O)c(-c2nc3ccccc3o2)c1)C1(c2ccc(Cl)cc2)CCCC1 | 6.46%
11 | Cc1ccc(C(=O)Nc2nnc(C)s2)o1 | 2.72%
12 | O=C(NCc1ccccn1)c1ccc(Br)s1 | -3.89%
13 | C/C(=N/NC(=O)c1ccco1)c1cccc(NC(=O)c2ccc(C)o2)c1 | -8.71%
14 | OCC#Cc1ncc(C(F)(F)F)cc1Cl | 14.6%
15 | COc1nc(N(CC(N)=O)S(=O)(=O)c2ccccc2)nc(C)c1Cl | 10.1%
16 | CN1C(=O)N(C)c2ccc(Br)c3cccc1c23 | 12.6%
17 | OCC1(Cc2ccccc2F)CCCN(CC2CCCCC2)C1 (centres unmarked) | 0.985%
18 | CCc1nc2cc(Cl)c(Cl)cc2nc1CC | 14.3%
19 | CN(CC(=O)Nc1ccc2c(c1)OCCO2)S(=O)(=O)c1ccc(F)cc1 | 3.63%
20 | Cc1cccc(C)c1NC(=O)CN.Cl | 5.9%
21 | Cc1ccc(NC(=O)COC(=O)CCc2nc3ccccc3c(=O)[nH]2)c(Br)c1 | 8.08%
22 | Cc1cc(C)c(-c2c(O)c3cccnc3n(C)c2=O)c(C)c1 | 22.3%
23 | O=C(CNc1cccc(F)c1)N1CCc2ccccc2C1 | 15.2%

Row | SMILES | hERG current change (%, negative = inhibition) at 1uM
24 | COc1ccc(CCNCC(O)COc2c(C)cccc2C)cc1OC.O=C(O)C(=O)O (centres unmarked) | 7.9%
25 | CC1CCN(S(=O)(=O)c2ccc(C(=O)NNC(=O)C3CC3)cc2)CC1 | 12.1%
26 | CC(C)(C)NC(=O)NC(=O)COC(=O)Cc1c(F)cccc1Cl | 8.47%
27 | C=CCNC(=S)N/N=C(\C)c1ccc(OC)cc1 | 19.8%
28 | COCCOC(=O)CC1=NC(=O)CS1 | 10.6%
29 | CCC(C)(C)n1nnnc1C(c1cccc(C#N)c1)N1CCN(c2cccc(C)c2C)CC1 (centres unmarked) | 7.31%
30 | O=C(c1ccc(OC2CCN(Cc3ccccn3)CC2)cc1)N1CCCC(O)C1 (centres unmarked) | 9.27%
31 | Cn1c(SCC(=O)N2CCN(C(=O)c3ccco3)CC2)nnc1-c1ccc(NS(C)(=O)=O)cc1 | 15.9%
32 | COc1ccc(Cl)cc1CSc1n[nH]c(C)n1 | 16.6%
33 | Cc1cc2c(cc1S(=O)(=O)N1CCN(c3cccc(C)c3C)CC1)OCCN2C | 0.0171%
34 | COc1ccc(Cl)cc1N1CCN(CCNC(=O)Nc2ccccc2C)CC1 | -0.596%
35 | Cc1onc(-c2c(Cl)cccc2Cl)c1C(=O)NC(C)(C)CO | -1.55%
36 | COc1cccc(C2CC(C(F)(F)F)n3nc(C(=O)Nc4c(C)n(C)n(-c5ccccc5)c4=O)cc3N2)c1 (centres unmarked) | 17.1%
37 | O=C(CN(Cc1ccco1)C(=O)CNS(=O)(=O)c1ccccc1)NCc1ccc(F)cc1 | -7.1%
38 | Cc1ccc(S(=O)(=O)N(CC(=O)Nc2cccnc2)c2cccc(Br)c2)cc1 | 7.63%
39 | CCNC(=S)N(Cc1ccco1)Cc1cc2cc3c(cc2[nH]c1=O)OCCO3 | 5.92%
40 | COc1ccc(/C=C2/C(=O)NC(=O)N(C3CCCCC3)C2=O)cc1CSc1ccccn1 | 10.2%
41 | O=C1CC(c2ccsc2)Sc2ccccc2N1 (centres unmarked) | -0.654%
42 | CCN(CC)C(=O)CSc1nnc2nnc3cc(OC)ccc3n12 | 11.9%
43 | COc1cccc(CN2CCN(C3CSCCSC3)CC2CCO)c1 (centres unmarked) | 5.67%
44 | CC(C)(C)NC(=O)NCc1cccnc1 | 15.8%
45 | COc1ccc(-c2nnc(SCc3cccc(C#N)c3)o2)cc1 | 9.14%
46 | CCN(CC)c1ccc(NC(=O)COc2ccc(C#N)cc2)cc1S(=O)(=O)Nc1ccc(OC)cc1 | 8.74%

Row | SMILES | hERG current change (%, negative = inhibition) at 1uM
47 | Clc1nc2ccccc2nc1-c1ccccc1 | 12.8%
48 | Cc1ccc(CNS(=O)(=O)c2cccc3nsnc23)cc1 | -4.25%
49 | COc1cc(/C=N/NC(=O)Cc2csc(N3CCOCC3)n2)cc(OC)c1O | 25.6%
50 | CCN(CC)C(=O)c1cc(C(C)(C)C)c(O)c(C(C)(C)C)c1 | -11.1%
51 | COc1ccc(-c2noc(-c3ccc(Cl)cc3[N+](=O)[O-])n2)cc1OC | 7.5%
52 | CC(C)(C)OC(=O)N[C@@H](Cc1ccccc1)c1nnc(SCC(=O)c2ccc(Cl)cc2)o1 | 2.37%
53 | CN(C)S(=O)(=O)N1CCC(Oc2ccc(C(=O)N3C[C@@H]4CCC[C@H]3C4)cc2)CC1 | 5.79%
54 | COc1cc(C2c3sc(=O)[nH]c3SC3C4CCC(C4)C23)ccc1O (centres unmarked) | -1.15%
55 | COc1ccc(CCN(C(=S)Nc2ccccc2)C2CC(=O)N(c3ccccc3)C2=O)cc1 (centres unmarked) | 9.33%
56 | Cc1ccccc1NC(=O)NCc1ccco1 | 12.7%
57 | O=C1CC(N2CCOCC2)=NN1c1ccc([N+](=O)[O-])cc1 | 5.54%
58 | CCOC(=O)c1ccc(/[N+]([O-])=C/c2ccccc2)cc1 | 2.12%
59 | C=C(C)CC(c1ccccc1)N(C(C)=O)c1ccco1 (centres unmarked) | 9.74%
60 | Cc1cc(C)c(S(=O)(=O)Nc2c(C)n(C)n(-c3ccccc3)c2=O)cc1[N+](=O)[O-] | 12%
61 | CC(Sc1nc(=O)cc(N)n1CCc1ccccc1)C(=O)NCc1ccccc1 (centres unmarked) | 2.71%
62 | CC(C(=O)NCCCN1CCOCC1)n1cccc1C(=O)c1ccccc1 (centres unmarked) | 10.4%
63 | O=C(Nc1ccc(Cl)cc1)C(Cl)C(=O)c1ccccc1 (centres unmarked) | 6.43%
64 | O=C(Cn1nnc(-c2cccc(C(F)(F)F)c2)n1)NC1CCCC1 | 12.8%
65 | COc1ccc(S(=O)(=O)Nc2ccccc2N2CCOCC2)cc1[N+](=O)[O-] | -2.92%
66 | O=C(CCNS(=O)(=O)c1ccc(Br)cc1)NCCc1ccccc1 | 4.74%
67 | COc1ccc(CCC(=O)N2CCN(S(=O)(=O)c3ccc(OC)cc3)CC2)cc1 | -4.89%
68 | CCc1ccc(NC(=O)/C(C#N)=C/c2ccncc2)cc1 | -8.33%
69 | Cc1cc(C)nc(NS(=O)(=O)c2ccc(NC(=S)NC(=O)C(C)(C)C)cc2)n1 | -11.8%

Row | SMILES | hERG current change (%, negative = inhibition) at 1uM
70 | Cc1cc(NC(=O)CN(C)CC(=O)Nc2ccc(Cl)c(C(F)(F)F)c2)no1 | 0.073%
71 | COc1ccc(-c2cc(=O)oc3c(C)c(OCc4nn[nH]n4)ccc23)cc1 | 11.3%
72 | COC(=O)C1=CN(Cc2ccc(OC)c(OC)c2)C=C(C(=O)OC)C1c1cccc(F)c1 | 5.44%
73 | Cc1ccc2c(C(=O)CN3CCN(C4CCCCC4)CC3)c(C)[nH]c2c1 | -16.2%
74 | Cc1cc(Cl)n2nc(C)c(-c3ccc(Cl)cc3)c2n1 | 10.5%
75 | CCOC(=O)N1CCN(C(=O)COc2ccc(S(=O)(=O)NCC(C)C)cc2C)CC1 | 8.75%
76 | Cc1ccc(NC(=O)C2CCCN(S(=O)(=O)c3c(C)noc3C)C2)c(C)c1 (centres unmarked) | 0.751%
77 | CCOc1ccc(CCNc2ccc3nnc(-c4ccccc4)n3n2)cc1OCC | 9.4%
78 | O=S(=O)(c1ccc(-c2cn3ccccc3n2)cc1)N1CCOCC1 | 3.57%
79 | CN(C)S(=O)(=O)c1cccc(NC(=S)NCCc2ccccn2)c1 | 16.5%
80 | CCOc1ccccc1C(=O)OCC(=O)Nc1ccc(N2CCCCC2)cc1 | 0.518%
81 | CCN1CCN(c2nnc(-c3ccccc3)c3ccccc23)CC1 | 0.672%
82 | CCOC(=O)c1ccc(NS(=O)(=O)c2c(C)n(C)c(=O)n(C)c2=O)cc1 | 13.7%
83 | O=C(NCc1cccnc1)c1ccccc1CCc1ccccc1 | -0.454%
84 | CCOc1ccc(CCNC(=O)COC(=O)/C=C/c2ccc(OC(F)F)c(OC)c2)cc1OCC | 3.29%
85 | CC(=O)c1sc2nc(C)cc(C)c2c1N | 1.22%
86 | COc1ccc(C(CC(=O)O)NC(=O)c2ccccc2[N+](=O)[O-])cc1 (centres unmarked) | 15.3%
87 | COc1ccc(C(=O)N/N=C/c2ccc(SC)cc2)cc1 | 8.54%
88 | CCCCNC(=S)N(CCCN(C)C)Cc1cc2cc3c(cc2[nH]c1=O)OCO3 | 5.16%
89 | CC(=O)C(Sc1ccc2nnc(-c3ccc(C)cc3)n2n1)C(C)=O | 7.24%
